Measured values taken from PMC7819943, “Rice protein-binding microarrays: a tool to detect cis-acting elements near promoter regions in rice”.
The other results are listed elsewhere or left out.

biological target: T1, OsWOX13 (Oryza sativa, UniProt Q5QMM3 1-267); assay: protein-binding microarray (RPBM); PBS, 2% BSA, 51.3 ng/ul salmon testes DNA, 50 uM zinc acetate, 200 nM TF, 25 C, 1 h; high values mean tight binding; settings: protein: recombinant; tags: N-terminal polyhistidine and DsRed monomer fusion (pET32a); label: CyDye5-dUTP incorporated in the synthesized complementary strand; 3' TTTTT single-stranded linker to array surface; dsDNA, one strand shown
T1 sequence: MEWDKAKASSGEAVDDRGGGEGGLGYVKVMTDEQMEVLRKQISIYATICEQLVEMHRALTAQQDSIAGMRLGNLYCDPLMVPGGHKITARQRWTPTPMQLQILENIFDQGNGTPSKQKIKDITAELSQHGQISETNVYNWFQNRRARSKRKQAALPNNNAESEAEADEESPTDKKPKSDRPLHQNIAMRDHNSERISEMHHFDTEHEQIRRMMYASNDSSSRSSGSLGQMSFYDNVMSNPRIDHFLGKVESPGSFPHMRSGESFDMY
Outline: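 The binding signal is fluorescence intensity per feature, in arbitrary units, read on an Axon 4000B scanner. Polyhistidine- and DsRed-tagged transcription factors (N-terminal fusions) from E. coli BL21-CodonPlus were purified on Ni–NTA and applied at 200 nM for 1 h at 25 °C to a double-stranded, BSA-blocked custom Agilent array in buffer with 50 µM zinc acetate.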

Sequence | binding signal
ATACAATTAATATAATATATGGTCCCACGTGTTATATGCGCGGAGTCACCTAGTGCAG | 7130 fluorescence intensity (a.u.)
TTGACATAATATAATCATGTGATATCTTATTGTAAAGATTCGGAGTCACCTAGTGCAG | 10400 fluorescence intensity (a.u.)
CTAAACAGGCTCTAAGTTTGGACGCTCCAAAGAGTGGCCGCGGAGTCACCTAGTGCAG | 7940 fluorescence intensity (a.u.)
TTAATTAATCACCTCCTAATGATCTGCCTCATTTTGCGTGCGGAGTCACCTAGTGCAG | 17600 fluorescence intensity (a.u.)
CCGAGATAATTACGTTGACTGACACATGGGGTCCAATCCACGGAGTCACCTAGTGCAG | 39900 fluorescence intensity (a.u.)
AAAATTAATTTATAGACAATTTTGTTATATATTTATTCATCGGAGTCACCTAGTGCAG | 29700 fluorescence intensity (a.u.)
AATTGATCTGCTAATGATTAATTGTTATGCATATGTCAGTCGGAGTCACCTAGTGCAG | 19500 fluorescence intensity (a.u.)
TTTGTAATAATTAACACTAATGATTTATGTGCTAATGGTTCGGAGTCACCTAGTGCAG | 45400 fluorescence intensity (a.u.)
AATAAATTCATTGATCTTTCAGCTCCTTGACAGCACTGCACGGAGTCACCTAGTGCAG | 3410 fluorescence intensity (a.u.)
ACTAACTAGCCTGTTTGTGAAAATCACTTATAGTAGGCGGCGGAGTCACCTAGTGCAG | 3220 fluorescence intensity (a.u.)
CTAATTGCATAGTGATCGATCGATCTGTATAGATGGTGGTCGGAGTCACCTAGTGCAG | 12200 fluorescence intensity (a.u.)
TTCAAACTATACATAATTGTACTATCGTAGAACTATTTGTCGGAGTCACCTAGTGCAG | 8320 fluorescence intensity (a.u.)
ACCAAATGGAACGAAAATGGCATTTTGGTGGACACCTGATCGGAGTCACCTAGTGCAG | 4200 fluorescence intensity (a.u.)
ATAATTAGATGATAAAACATAAATAATATTTAATGTTTAACGGAGTCACCTAGTGCAG | 27600 fluorescence intensity (a.u.)
CAAGATCACTCTTCAATTAATTTATGGTGACTGCATAGCGCGGAGTCACCTAGTGCAG | 17700 fluorescence intensity (a.u.)
AGTCAAATTATAATCCAGTATGAATAAAGTATATTACTACCGGAGTCACCTAGTGCAG | 7090 fluorescence intensity (a.u.)
TACATGGGACACGAATTGACAGAAGCCCATATGGAGATAGCGGAGTCACCTAGTGCAG | 3150 fluorescence intensity (a.u.)
GCCATTATTAAATTGTTGCTTGACGTAATTTGTTTAAGCACGGAGTCACCTAGTGCAG | 18500 fluorescence intensity (a.u.)
TCCCGAGATAATTGCACAAGAGATCCCGAAGCAACCCGTGCGGAGTCACCTAGTGCAG | 9500 fluorescence intensity (a.u.)
ACAGCAGTATCATGGTGTGATTGATGCCTAACAAGAGAATCGGAGTCACCTAGTGCAG | 15700 fluorescence intensity (a.u.)
ATAATTGCCATGCATGCACGTTGTCGTTCGTCGACCTTCCCGGAGTCACCTAGTGCAG | 13000 fluorescence intensity (a.u.)

Sequence | binding signal
CCTATTTCCGTTTAAATTTCTAATGACGACTCCCATGGTCCGGAGTCACCTAGTGCAG | 3470 fluorescence intensity (a.u.)
TATATTGATTATCGAGTACTCCATTCGTCTTAAAATAAGGCGGAGTCACCTAGTGCAG | 31300 fluorescence intensity (a.u.)
TGATCTAACAAATTATGTCACATACTCACATCGGTCAATACGGAGTCACCTAGTGCAG | 4140 fluorescence intensity (a.u.)
ATATACTTAATTTGAATCTTGGAGCCCATACTCCATGTAGCGGAGTCACCTAGTGCAG | 18400 fluorescence intensity (a.u.)
ATGCAAAATGGAGATGATGGGAAGGACGACTTTGAAAATGCGGAGTCACCTAGTGCAG | 3160 fluorescence intensity (a.u.)
TATGATTTGACCATGTGGTGCTATAGTAAATATTTGCTAACGGAGTCACCTAGTGCAG | 21500 fluorescence intensity (a.u.)
TTTCTTGTTGATTGCAGGATCAAATCAACTGGCACACTAGCGGAGTCACCTAGTGCAG | 21900 fluorescence intensity (a.u.)
AATGCTAATGACAGATTAATTAGGCTTAATAAATTTGTCTCGGAGTCACCTAGTGCAG | 29500 fluorescence intensity (a.u.)
ATAAAATTTAATATTAAATATGCATTTGAACAGCTATAAACGGAGTCACCTAGTGCAG | 6360 fluorescence intensity (a.u.)
ATGGCATGATTTTCATTTTATACGTATTCGGATGGCATGACGGAGTCACCTAGTGCAG | 5660 fluorescence intensity (a.u.)
AAGATAATTAATTTAATCATAACCGAGTTGCATATCTTGCCGGAGTCACCTAGTGCAG | 47300 fluorescence intensity (a.u.)
CTTCGCTTCAATCTAATCTTCCTTTCCAATGCCGATATTACGGAGTCACCTAGTGCAG | 3840 fluorescence intensity (a.u.)
AGGAATTGATGCATTCATCCTGTGATGCTACAAAGAGGACCGGAGTCACCTAGTGCAG | 14900 fluorescence intensity (a.u.)
AGATCAGTTTGACCAAATGTGATTAGTGTTTAATTTATTTCGGAGTCACCTAGTGCAG | 5940 fluorescence intensity (a.u.)
TGGAATGATGTTGGGATTGATGGATGGATGTATGTTTTGTCGGAGTCACCTAGTGCAG | 15300 fluorescence intensity (a.u.)
TGCTAAACTATCATCAATCACCGAACAGAAACAAACGTCACGGAGTCACCTAGTGCAG | 24700 fluorescence intensity (a.u.)
GGTGACTCAGTTTATACCAGATTAATGATCCATTACCTCTCGGAGTCACCTAGTGCAG | 4460 fluorescence intensity (a.u.)
CTTCCATTTATTTCCAGTTATTCACATATGTCGTGCTAAGCGGAGTCACCTAGTGCAG | 4700 fluorescence intensity (a.u.)
ACTTTTACTAACAATCATCTCAACCGTTTGATTTAAGTAGCGGAGTCACCTAGTGCAG | 9390 fluorescence intensity (a.u.)
TAATTATAACTCATTCCAATCAAGCTTTGAATGATTTGTTCGGAGTCACCTAGTGCAG | 10000 fluorescence intensity (a.u.)
ATCTTTAATTTTGATATTTAATTTTAATCATTGGAAAGGGCGGAGTCACCTAGTGCAG | 25000 fluorescence intensity (a.u.)
